The list shows a part of the results. Binding of human transcription factors and regulators to the viral nucleoprotein by AlphaScreen, crude cell-free proteins, amounts not normalised, one pass. Fold of the Venus control; higher = more signal. No active / inactive call. Single-pass screen; sequences are the whole Swiss-Prot entries looked up by name.

The labels stand for the following.
B1: BEX1, Q9HBH7 (protein)
chain: MESKEKRAVNSLSMENANQENEEKEQVANKGEPLALPLDAGEYCVPRGNRRRFRVRQPILQYRWDMMHRLGEPQARMREENMERIGEEVRQLMEKLREKQLSHSLRAVSTDPPHHDHHDEFCLMP
B2: ETV3, P41162 (protein)
chain: MKAGCSIVEKPEGGGGYQFPDWAYKTESSPGSRQIQLWHFILELLQKEEFRHVIAWQQGEYGEFVIKDPDEVARLWGRRKCKPQMNYDKLSRALRYYYNKRILHKTKGKRFTYKFNFNKLVMPNYPFINIRSSGVVPQSAPPVPTASSRFHFPPLDTHSPTNDVQPGRFSASSLTASGQESSNGTDRKTELSELEDGSAADWRRGVDPVSSRNAIGGGGIGHQKRKPDIMLPLFARPGMYPDPHSPFAVSPIPGRGGVLNVPISPALSLTPTIFSYSPSPGLSPFTSSSCFSFNPEEMKHYLHSQACSVFNYHLSPRTFPRYPGLMVPPLQCQMHPEESTQFSIKLQPPPVGRKNRERVESSEESAPVTTPTMASIPPRIKVEPASEKDPESLRQSAREKEEHTQEEGTVPSRTIEEEKGTIFARPAAPPIWPSVPISTPSGEPLEVTEDSEDRPGKEPSAPEKKEDALMPPKLRLKRRWNDDPEARELSKSGKFLWNGSGPQGLATAAADA
B3: GLMP, Q8WWB7 (protein)
chain: MRGSVECTWGWGHCAPSPLLLWTLLLFAAPFGLLGEKTRQVSLEVIPNWLGPLQNLLHIRAVGTNSTLHYVWSSLGPLAVVMVATNTPHSTLSVNWSLLLSPEPDGGLMVLPKDSIQFSSALVFTRLLEFDSTNVSDTAAKPLGRPYPPYSLADFSWNNITDSLDPATLSATFQGHPMNDPTRTFANGSLAFRVQAFSRSSRPAQPPRLLHTADTCQLEVALIGASPRGNRSLFGLEVATLGQGPDCPSMQEQHSIDDEYAPAVFQLDQLLWGSLPSGFAQWRPVAYSQKPGGRESALPCQASPLHPALAYSLPQSPIVRAFFGSQNNFCAFNLTFGASTGPGYWDQHYLSWSMLLGVGFPPVDGLSPLVLGIMAVALGAPGLMLLGGGLVLLLHHKKYSEYQSIN
B4: PKNOX1, P55347 (protein)
chain: MMATQTLSIDSYQDGQQMQVVTELKTEQDPNCSEPDAEGVSPPPVESQTPMDVDKQAIYRHPLFPLLALLFEKCEQSTQGSEGTTSASFDVDIENFVRKQEKEGKPFFCEDPETDNLMVKAIQVLRIHLLELEKVNELCKDFCSRYIACLKTKMNSETLLSGEPGSPYSPVQSQQIQSAITGTISPQGIVVPASALQQGNVAMATVAGGTVYQPVTVVTPQGQVVTQTLSPGTIRIQNSQLQLQLNQDLSILHQDDGSSKNKRGVLPKHATNVMRSWLFQHIGHPYPTEDEKKQIAAQTNLTLLQVNNWFINARRRILQPMLDSSCSETPKTKKKTAQNRPVQRFWPDSIASGVAQPPPSELTMSEGAVVTITTPVNMNVDSLQSLSSDGATLAVQQVMMAGQSEDESVDSTEEDAGALAPAHISGLVLENSDSLQ
B5: WFS1, O76024 (protein)
chain: MDSNTAPLGPSCPQPPPAPQPQARSRLNATASLEQERSERPRAPGPQAGPGPGVRDAAAPAEPQAQHTRSRERADGTGPTKGDMEIPFEEVLERAKAGDPKAQTEVGKHYLQLAGDTDEELNSCTAVDWLVLAAKQGRREAVKLLRRCLADRRGITSENEREVRQLSSETDLERAVRKAALVMYWKLNPKKKKQVAVAELLENVGQVNEHDGGAQPGPVPKSLQKQRRMLERLVSSESKNYIALDDFVEITKKYAKGVIPSSLFLQDDEDDDELAGKSPEDLPLRLKVVKYPLHAIMEIKEYLIDMASRAGMHWLSTIIPTHHINALIFFFIVSNLTIDFFAFFIPLVIFYLSFISMVICTLKVFQDSKAWENFRTLTDLLLRFEPNLDVEQAEVNFGWNHLEPYAHFLLSVFFVIFSFPIASKDCIPCSELAVITGFFTVTSYLSLSTHAEPYTRRALATEVTAGLLSLLPSMPLNWPYLKVLGQTFITVPVGHLVVLNVSVPCLLYVYLLYLFFRMAQLRNFKGTYCYLVPYLVCFMWCELSVVILLESTGLGLLRASIGYFLFLFALPILVAGLALVGVLQFARWFTSLELTKIAVTVAVCSVPLLLRWWTKASFSVVGMVKSLTRSSMVKLILVWLTAIVLFCWFYVYRSEGMKVYNSTLTWQQYGALCGPRAWKETNMARTQILCSHLEGHRVTWTGRFKYVRVTDIDNSAESAINMLPFFIGDWMRCLYGEAYPACSPGNTSTAEEELCRLKLLAKHPCHIKKFDRYKFEITVGMPFSSGADGSRSREEDDVTKDIVLRASSEFKSVLLSLRQGSLIEFSTILEGRLGSKWPVFELKAISCLNCMAQLSPTRRHVKIEHDWRSTVHGAVKFAFDFFFFPFLSAA
B6: SIX4, Q9UIU6 (protein)
chain: MSSSSPTGQIASAADIKQENGMESASEGQEAHREVAGGAAVGLSPPAPAPFPLEPGDAATAAARVSGEEGAVAAAAAGAAADQVQLHSELLGRHHHAAAAAAQTPLAFSPDHVACVCEALQQGGNLDRLARFLWSLPQSDLLRGNESLLKARALVAFHQGIYPELYSILESHSFESANHPLLQQLWYKARYTEAERARGRPLGAVDKYRLRRKFPLPRTIWDGEETVYCFKEKSRNALKELYKQNRYPSPAEKRHLAKITGLSLTQVSNWFKNRRQRDRNPSETQSKSESDGNPSTEDESSKGHEDLSPHPLSSSSDGITNLSLSSHMEPVYMQQIGNAKISLSSSGVLLNGSLVPASTSPVFLNGNSFIQGPSGVILNGLNVGNTQAVALNPPKMSSNIVSNGISMTDILGSTSQDVKEFKVLQSSANSATTTSYSPSVPVSFPGLIPSTEVKREGIQTVASQDGGSVVTFTTPVQINQYGIVQIPNSGANSQFLNGSIGFSPLQLPPVSVAASQGNISVSSSTSDGSTFTSESTTVQQGKVFLSSLAPSAVVYTVPNTGQTIGSVKQEGLERSLVFSQLMPVNQNAQVNANLSSENISGSGLHPLASSLVNVSPTHNFSLSPSTLLNPTELNRDIADSQPMSAPVASKSTVTSVSNTNYATLQNCSLITGQDLLSVPMTQAALGEIVPTAEDQVGHPSPAVHQDFVQEHRLVLQSVANMKENFLSNSESKATSSLMMLDSKSKYVLDGMVDTVCEDLETDKKELAKLQTVQLDEDMQDL

This experiment has as its target nucleoprotein N of Crimean-Congo hemorrhagic fever virus. Briefly: AlphaScreen luminescence signal relative to Venus negative control (fold); higher = stronger binding to CCHFV N. On the procedure: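 AlphaScreen binding of cell-free made, FLAG-GST-tagged human transcription factors and regulators (crude translation products) to biotinylated N protein; signal as fold of the FLAG-GST-Venus control. One pass.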
For orientation: In Alpha technology, singlet oxygen from a donor bead excites a nearby acceptor bead.
On to B1, for which the AlphaScreen luminescence signal was determined as 4.05.

In turn, B2 displayed an AlphaScreen luminescence signal of 1.77.

With B3, the AlphaScreen luminescence signal turned out to be 2.93.

Turning to B4, the AlphaScreen luminescence signal came to 1.95.

The molecule B5 yielded an AlphaScreen luminescence signal of 2.51.

The molecule B6 showed an AlphaScreen luminescence signal of 1.91.

The record behind these values is the supplement of paper PMC12423691.
